Test results taken from the supplement of paper PMC10126150.
Values marked as one replicate rest on one cluster of the flow cell; about a third of the high ones do not repeat.

System: ATP
Assay: switch fluorescence ratio, 500 uM ATP over buffer (Cy3 cluster intensity, sum of 5 cycles each) (fold (ratio)); higher = stronger signal-on switching upon ATP binding; sequences stand for … in TCGTCGGCAGCGTCAGATGTGTATAAGAGACAGTTTTTTTTTTTTTTTTTTTTTTTTT…TC
Settings: aptamer strand: ATP DNA aptamer (quencher-CACCTGGGGGAGTATTGCGGAGGAAGG + anchor), 100 nM annealed; ATP concentration: 500 uM; one replicate
Outline: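 The quencher-labelled ATP aptamer, at 100 nM, was annealed to Cy3-labelled switching-strand clusters on a modified Illumina MiSeq flow-cell. The clusters were imaged in selection buffer, then after 15 min with 500 uM ATP at 22 °C, and this buffer/ATP cycle ran five times with NaOH stripping and re-annealing between runs. Per-cluster fluorescence ratios, summed target-cycle over summed buffer-cycle Cy3 intensity, were averaged per switch-domain sequence. Clusters outside 100-1000 RFU were excluded.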
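Note: ATP exposure 15 min at 22 °C before imaging.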

Sequence | switch fluorescence ratio
GGGTGTCGGG | 0.991
CAAGGGCGCC | 1.02
TTGCTGGTAC | 1.06
GACGTTAGTC | 0.997
TGGTCGGGCA | 1
GGAAAGGAAT | 0.98
TCCACCGAGT | 1.25
ACCAGATTAC | 1.06
ACTGGAAGAT | 1.05
GAGTGTTCTC | 0.958
ATTGTTA | 1.01
AGCTCTTTTG | 0.953
TCCTGAGGGG | 1.01
TGCTAGTTA | 1.01
TTTAAGGCTA | 0.944
TATCGTACTG | 1.02
GCTTTGGTGT | 0.983
AGGGTCTGTG | 0.981
CTTGCCGGAG | 0.999
ATCCGCGGAG | 1.04
CGGTTGCTGC | 1.01
CCTAGGAAAG | 1.04
TCGATCTTTG | 0.955

Sequence | switch fluorescence ratio
AGGAGTTGTG | 0.976
GCATAGAACC | 1.06
TGATTCCCGG | 0.984
ACCCTGTTTT | 0.912
CATATTGAAC | 0.99
ACTCCAGGTC | 1.71
TTCATTGAAA | 0.975
ATGATGGAGT | 0.983
ACGTAGATCG | 1
ACGCTATGTT | 1.14
ACAGAGACGA | 1.01
CGTTTTGAGT | 0.983
CGAAATAATA | 1.02
GCGTCCGGGC | 1.07
CGAAGACGCG | 1.2
TGACTTTCGG | 0.984
CGAAGAGATA | 0.955
ATATGCTTTA | 1.01
CCTGCAAAAA | 1.14
ATAACACGTA | 1.21
GTCGTCTATT | 0.971
CAATCGGAGC | 1.03
CGTGGGTACT | 1.01

Sequence | switch fluorescence ratio
GGATTAGAAG | 1.03
TTTCGGGTC | 1.06
ACGCAGAAAT | 1.81
AGATGCTCTT | 0.978
CCTTGGCGCC | 1.02
CGGAACGTGT | 0.986
CAAACTTTGA | 1.03
TTAATCAGTG | 0.999
CAGAGCGGCG | 0.95
TTTGCCTAGG | 1.05
GCTGTTACCG | 0.969
CTAATAAG | 0.992
AACGGGCTGA | 0.999
CGCATTCGAT | 1.43
AGGATATTGT | 1.02
TCATCAGGAA | 1.31
TTCTTAGGC | 0.963
TTTAAGGTAA | 0.96
TACAGGCCTG | 1.01
TATCCCTTTC | 1.18
ATCTGATCTT | 1.03
AAAGGAGGAC | 1.4
CGGCGGGATG | 1.01

Sequence | switch fluorescence ratio
CCGAAAGGTG | 2.52
CAACTCGAGT | 1.03
AGCTTTATAT | 1.01
GGTGAGCACA | 1.04
TTGTTAGCTC | 0.973
ATGGCAAGGC | 1.31
CTTTTTGCCT | 1.02
ATTTCTCGCA | 1.29
AGTCCAGCAC | 1.06
CGTGGCCGAC | 0.941
TCGTTTGAAC | 0.99
ATATGGGCC | 1.01
GTGGTATTGC | 0.986
CGCGTGGTGT | 1.01
ATTGGCATGG | 1.02
GGTTTGTCGG | 0.958
GGTAGGCATC | 0.97
TTTCAGCTAT | 1.05
TAATTTTTA | 0.998
CCAGTCGAAA | 1
CAAACCACAC | 1.4
CGAGGGCATA | 1.8
AAAGCGACAG | 0.997

Sequence | switch fluorescence ratio
GCTAGACATC | 1.01
AAGTGGTATA | 0.993
CCCCTGCTCG | 1.05
TAAGTGAAGC | 1.01
TTTGCGTGTC | 1.17
CTTTGCATGC | 2.28
AGGACTGAGC | 1.03
TCGGGCCTTG | 1.12
GGGAATATCA | 0.949
GACCGTTATT | 1.06
AGGTACGATA | 1.07
TCCGGTATCC | 1.31
GGTTACTTGC | 1.01
TAGTTGTCGA | 0.958
CTCGCCTTTC | 1.51
TTTTGCCGTC | 1.04
TTTTATCTTC | 1.03
TTAATCGTTC | 1.05
AAGTTTCTGG | 0.952
TGGGAATGTC | 1.11
GTGACTAGAG | 1.05
GATTGCAGG | 1.02
ATGCACGCAC | 1.8

Sequence | switch fluorescence ratio
TGAAACTTTG | 0.966
GAGGTGAATC | 0.965
TTAACATCGC | 1.06
CTCTAGGTAG | 1.13
GCCCGTGGAC | 1.25
ACGCTTACTG | 1.46
CAATTTATAC | 1.22
AGCAAGCGT | 1.05
AAAGTATCGC | 1.03
CATGCTCACT | 1.06
AGGAGCCTGT | 0.988
TATTACGAAC | 1.49
CCCACAACAG | 1.02
TGACTCCATT | 1.04
GCAAACCACA | 1.08
GTAGGCAAAA | 1.05
AAGGTGACTA | 1.02
ATCTATTCAG | 0.993
GGTGGTATTC | 0.966
CGAAGAGTAT | 0.954
CTTAATGTAG | 0.973
TGTACAGGG | 1.01
ACCACTTCCA | 1.1

Sequence | switch fluorescence ratio
TAAAACATCC | 1.11
GTTGATTTCC | 1.05
GAAAGCTTGC | 1.27
GAGAGTGGTA | 0.993
CGGCCATGTC | 0.98
AAGGGCGGTA | 0.976
CGTAACTTTT | 0.925
GGAGAGACGT | 1
TGGGCGGCAT | 1.01
AGGGCCCACC | 1.01
GCCCGCTCGG | 1
CGTCGGACGC | 1.08
CGCCCTAAAT | 1.03
CGTTCGTTTA | 1.03
ATGGGCGAGG | 0.979
CATTGTTCTT | 0.965
GATCTTGCAT | 0.972
CTTTTGCGAC | 1.12
AAGTTAGTTG | 0.999
